# Experimental data as given in paper PMC12136788.
# Changes are numbered by the printed parent chain. The list shows a part of the results.
# T1: UNK ZnF1-3 (human, UniProt Q9C0B0 31-174)
# T1 sequence: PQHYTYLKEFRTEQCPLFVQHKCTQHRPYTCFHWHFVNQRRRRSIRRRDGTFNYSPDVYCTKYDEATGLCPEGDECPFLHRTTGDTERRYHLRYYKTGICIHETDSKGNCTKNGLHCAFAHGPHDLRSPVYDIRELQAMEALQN
# B1: chr11:77340908:77340909:-_ENSG00000074201_ENST00000525064|hu_hu|hu_hu_hu_mus_True|38_38 (ssRNA)
# RNA: GGGAGUUCUACAGUCCGACGAUCGUUUGGAUCCCUGGACACCGCAUGUAAACUAAUGGUGGGGUAUUCCAGUGAGAAUCCUAAUCCCGAACCAUCUAACCAAGACAGGCGGCUCUCCGCGAUGUAAAGCGUGCCGGUGCCGAGCAACAGAGGAUUGAGCAUCA
# B2: chr19:36949789:36949790:+_ENSMUSG00000024811_ENSMUST00000025729|mus_mus|FALSE|FALSE (ssRNA)
# RNA: GGGAGUUCUACAGUCCGACGAUCAUGUAAAGGAAUGAGUCCUCCUUUGUCCUGGGCAUUCACAUCAGCUCCAUGUUGCAAUAAAUACUCAGCAACUUCCAAGUUAUUAUAACCAGCUGCCAAAUGUAAAGGUGUAGAAUGCCGCAACAGAGGAUUGAGCAUCA
# B3: chr2:42472670:42472671:+_ENSG00000143924_ENST00000318522|hu_hu|motif|central (ssRNA)
# RNA: GGGAGUUCUACAGUCCGACGAUCCGUGACUCAAGAGCUGACAGGCGAUCUUGAACAUCAGAAGUACUUGCAGCAGAAAUACGGUCAUCGAGACUGCCGGCGAAACCGUCCAUCUUGCGGGGAAAGCGCCGGGCUCCGGGCUUACAACAGAGGAUUGAGCAUCA
# B4: chr2:179988524:179988525:-_ENSG00000187231_ENST00000428443|hu_mus|motif|central (ssRNA)
# RNA: GGGAGUUCUACAGUCCGACGAUCUAAAGUUUGCUGAAUCGAUGCUCCAUCAGCUGGUGCUACAUCUACGCACAACAUCCCGGAUAAGCCGUCCAACUGCUGAGACAAAUCUUGGGCCACACCAUGAAAUUCCAAAGCUGCCUGCAACAGAGGAUUGAGCAUCA
# B5: chr9:37780755:37780756:-_ENSG00000107371_ENST00000396521|hu_hu|FALSE|FALSE (ssRNA)
# RNA: GGGAGUUCUACAGUCCGACGAUCGCCAAUCUGGAGAAGAUCUGUUUUCUUUGAUCUGACGUCAUGUGUUCACAAGCUUCUAAAAUGUUUGCCAAAAUUAAAGUCUGCUGGAUGGUUUUUGCCUUAACCCAUAUUCUUCCAUUCCAACAGAGGAUUGAGCAUCA
# B6: chr2:216981417:216981418:+_ENSG00000079246_ENST00000392132|hu_hu|hu_hu_hu_mus_True|18_38 (ssRNA)
# RNA: GGGAGUUCUACAGUCCGACGAUCCUGAUACUGGUCCUUGCCAGCAAGGGCAUUAUCAGUGCCAUCUGUGCCAUAGAGGACUAACGCAAUCUCAUCUUUGUUCUCAGAAAAUACCUGUCGCUGUACAAACAUAGUCAUCACUUUCAACAGAGGAUUGAGCAUCA
# B7: chr10:33214929:33214930:-_ENSG00000150093_ENST00000302278|hu_hu|hu_hu_hu_mus_True|8_8 (ssRNA)
# RNA: GGGAGUUCUACAGUCCGACGAUCAACAAGUUCAUUGAAAAACUCUCCUCUGUCAGUAAGACUAAGCACAUUUUUGUAGCUAAAUGGGCUGGUGCAGUUUUGUUCACUUGUACAAGGAUUUCUUAGCUUAGCUGGUGUUGUGCUCAACAGAGGAUUGAGCAUCA
# B8: chr14:78183846:78183847:+_ENSG00000119705_ENST00000557342|hu_hu|hu_hu_hu_mus_False|38_68 (ssRNA)
# RNA: GGGAGUUCUACAGUCCGACGAUCUCUCAGAAAUCUUUCUUCAUCAGAUGUUUGAGCUCCGUGCAAAAGUUUUGGCCUUUGAGCUUGAACGUGGAUCUUUACUCCAUAAAGCACUGUCAGAAAAGGUAAUUUUUUUUUUAAAGACAACAGAGGAUUGAGCAUCA
# B9: chr8:74529624:74529625:-_ENSG00000040341_ENST00000355780|hu_hu|FALSE|FALSE (ssRNA)
# RNA: GGGAGUUCUACAGUCCGACGAUCGAGGGCUUUCAUUGCAGCAUUGUGUCUAGCAGCUUGUCGAGUCUUUCCUUCCCCAAAAAAUUCAUUAUUUCCUACAGUGAGCUGAACAUAAAAGAUCUUAGGCACUGGGCAAUGAUACCUCAACAGAGGAUUGAGCAUCA
# B10: chr5:145543945:145543946:-_ENSG00000133706_ENST00000545646|hu_hu|hu_hu_hu_mus_True|1_1 (ssRNA)
# RNA: GGGAGUUCUACAGUCCGACGAUCCUGAACGGCCAGUGGUGGGAAAUAAUCAAGCCAGUGCUCUGCUUCAGAAAACUUCACUAUGUCGUCAUCAGAGAGCCCAAGGGAUUUCAUAAUGUCCCACUGGUACUUAGAAGAUCCAGCCAACAGAGGAUUGAGCAUCA
# B11: chr22:42024162:42024163:+_ENSG00000196419_ENST00000405878|hu_mus|motif|central (ssRNA)
# RNA: GGGAGUUCUACAGUCCGACGAUCUUCAUCUUCACCCUGAGAUUCGAACAUAGCCCUGGAGGCAUCAACCAGAAAAAUCAAGCGGUCUCUUCCUGAAUAUUUAUAUUCUCCACCUGUGUCGGGGCUCUCCUCCUCCUCUUCCUCCAACAGAGGAUUGAGCAUCA
# B12: 214822017_214822137_8058_CDS_ENSG00000117724_ENST00000366955|human|control|control (ssRNA)
# RNA: GGGAGUUCUACAGUCCGACGAUCCAACUCUCCAGCUAGCCUAUUUUUCUCUCCACUGAGUUCUUCUUGCAGCUCUGCUGUUUUCUGUGCCAUCUCAUGCAUUUCCCUCUGCAGCUCAGUUUCCUUUGCAGUCAUUUUGUUUACCAACAGAGGAUUGAGCAUCA
# B13: chr2:73747422:73747423:-_ENSMUSG00000018770_ENSMUST00000018914|mus_mus|motif|central (ssRNA)
# RNA: GGGAGUUCUACAGUCCGACGAUCCAGCUGACACACACCAUUCUGGGCCCCAUUAAAAACUGUAGAGCCCUCUCCAGUCCGGGUCUCUGGCCGAGAUAACACUGAUGCAGAAAUUGGUCUAUAUGCAACUCUGGAUCCAGCUCGCAACAGAGGAUUGAGCAUCA
# B14: chr17:4848066:4848067:+_ENSG00000108523_ENST00000575111|hu_mus|FALSE|FALSE (ssRNA)
# RNA: GGGAGUUCUACAGUCCGACGAUCAGUUUCUUCUUCCUGCUCCUCAUCGCCAGGACCCCGAUGUACAGGCUGUUUGCAGAUGGGGCAGGUCUUGCGGGUCUGAGUGAGCCAGGGGUCCACACAGCGACUGUGAUAAGCAUGAGCCAACAGAGGAUUGAGCAUCA
# B15: chr11:77336104:77336105:-_ENSG00000074201_ENST00000525064|hu_mus|hu_hu_hu_mus_False|8_88 (ssRNA)
# RNA: GGGAGUUCUACAGUCCGACGAUCCUCACACAUUGCUGUGAACAUCGCCUCCAACGCUGACUUAUCACUGGGCACAAAUCGAAAUUCAGAAAUGGGUUCAACAUCAUCAUUGUCUUCCUCAUCUUCAUCAUCAGCAAGUUCUUUCAACAGAGGAUUGAGCAUCA
# B16: chr7:54823571:54823572:-_ENSG00000132432_ENST00000352861|hu_hu|motif|central (ssRNA)
# RNA: GGGAGUUCUACAGUCCGACGAUCUCCCAUUAUAGCAAAUCCUAUUGCUGUUGCCAUGGCAAUCUUCUGGAAUUCUUUUCGGUCAGGUUUAGUGCAUCUUUUAACCAGCCGAAUGGAGUCCUUUACAAACUGCCGACUUGGCUCCAACAGAGGAUUGAGCAUCA
# B17: chr2:65860617:65860618:+_ENSMUSG00000044647_ENSMUST00000122912|mus_mus|FALSE|FALSE (ssRNA)
# RNA: GGGAGUUCUACAGUCCGACGAUCGAGCUGGCUAGGAGUUCCUGGGAUGUGACUAUCUAUUUGGUAGUAGAGAGUUGAAGAGCUAGCGUAAAAUGAAGCAUUUUUUGUGUGGCUUUCAUGAACUGCGGUGCCAUCAGAGUAACACAACAGAGGAUUGAGCAUCA
# B18: chr7:65705475:65705476:+_ENSG00000169902_ENST00000304842|hu_hu|hu_hu_hu_mus_True|98_108 (ssRNA)
# RNA: GGGAGUUCUACAGUCCGACGAUCUCUAUCCGGUGAUGGCAUUCCAUGGCAUGCUGGCCCAGGUAAAACACGGUCACAGAACUAAUCACCAGACACGCCAAGAGUAAGUUCUGCUUCAGCUUCCCAACCAUCUUGAUGUGGUUACAACAGAGGAUUGAGCAUCA
# B19: chr1:202705475:202705476:-_ENSG00000117139_ENST00000367264|hu_mus|FALSE|FALSE (ssRNA)
# RNA: GGGAGUUCUACAGUCCGACGAUCCAAUCUUGGUAAAGAAUUGAGAUGUACUGGGAUAGAUCGGCCUCUUGCAACAAGUUCAAUGAGUGUCUCUAACACUGGCACACGUCCUCCUGCCUGCAAUGCAUCCACAUCCUGAACCCACAACAGAGGAUUGAGCAUCA
# B20: chr17:17165348:17165349:-_ENSG00000141030_ENST00000268717|hu_hu|FALSE|FALSE (ssRNA)
# RNA: GGGAGUUCUACAGUCCGACGAUCAAUUUGAGAUGUAUAUUUUGGUAGCUGUUGUACUUUGCCAAGUAAUAUCAAAGACACUAAAAUAUACUUUUUAUAUGAUUCCAACAUGAUAUGACUGACCGCCAUGGCAGGAGUAGUUAUCAACAGAGGAUUGAGCAUCA
# B21: chr2:216981417:216981418:+_ENSG00000079246_ENST00000392132|hu_hu|hu_hu_hu_mus_True|28_28 (ssRNA)
# RNA: B6 RNA with U100C, A105C, A107C, U111C, C120U, U123G
# B22: chr2:114709107:114709108:+_ENSG00000115091_ENST00000536059|hu_hu|FALSE|FALSE (ssRNA)
# RNA: GGGAGUUCUACAGUCCGACGAUCAGAGAGGACAAUAUUCUUGUAGAGAGGACGUCUGACAUCAAUAGGACAAUUCUGAAUUACUUCAUCUACAACUUCUGAGAUAGGUUGUGUAAAGUCUGGAUUAGCAAACUCUGGAUGAAACAACAGAGGAUUGAGCAUCA
# Target: T1, UNK ZnF1-3
# Experiment: nsRBNS (natural sequence RNA bind-n-seq); RBNS binding buffer (assumed for nsRBNS): 25 mM Tris pH 7.5, 150 mM KCl, 3 mM MgCl2, 0.01% Triton X-100, 500 ug/ml BSA, 20 U/ml SUPERase-In, 4 C; UNK is unkempt and MSI1 is Musashi-1; names of the RNAs are library labels; protein concentration not given here; high values mean tight binding
row,Binder,binding signal [enrichment R]
1,B1,0.716
2,B2,0.603
3,B3,1.37
4,B4,1.12
5,B5,1.08
6,B6,0.783
7,B7,0.941
8,B8,1.14
9,B9,1.49
10,B10,1.33
11,B11,1.55
12,B12,0.348
13,B13,1.43
14,B14,1.02
15,B15,1.17
16,B16,0.604
17,B17,0.988
18,B18,0.461
19,B19,1.11
20,B20,0.577
21,B21,0.742
22,B22,0.985
